Results published in the supplement of paper PMC11417369.
± gives the standard deviation of the averaged measurements. The list shows a part of the results.

system: PfAP2-EXP AP2 domain (GST-tagged); assay: gcPBM binding intensity (ln(normalized median fluorescence intensity)); higher = stronger DNA binding
In short: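 Binding intensity is the highest Masliner-normalised natural-log median intensity over replicate spots in either probe orientation. To obtain it, GST-tagged P. falciparum DNA-binding domains made in E. coli were incubated for 1 h on an Agilent 4 × 180k array of primer-extended double-stranded 36-bp intergenic genomic probes plus negative controls. Detection used Alexa488 anti-GST antibody with scanning at 488 nm.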

Row | Sequence | gcPBM binding intensity (ln)
1 | TATGTGAATATAATCACACACAATACGGAAACCCAC [CACACA_site2725] | 8.91 ± 0.52
2 | TTATATATAAACATAAAAAGAAATATATTATGTATA [CACACA_negctrl_site667] | 8.3 ± 0.55
3 | TAATTTTTAATTGTAGCATGCAGTATTTTTAAATAT [TGCATGCA_site140] | 9.21 ± 0.35
4 | ATAATATTATTATAATGTACATATTTCGATATAAAT [XGTACX_site8808] | 8.61 ± 0.42
5 | GATTATACAAAATATACACACGTGTAGACAAATATT [CACACA_site4785] | 8.89 ± 0.47
6 | ATATTTAATGTTAATTGTACATATTATATATATATA [XGTACX_site6095] | 9.82 ± 0.14
7 | ATATATATTAATAGGTGTACATATAAAGTGTTATGT [XGTACX_site5464] | 8.78 ± 0.2
8 | AAAAAAATATATATTACACACATATATACCTATATA [CACACA_site5688] | 8.18 ± 0.47
9 | TAATAATGCAACCTCTGTACACAACATTATATCCAT [XGTACX_site7596] | 8.93 ± 0.36
10 | AAAAAAAAATTTTTAAAATTTAGAAAATTTAAAAAA [GTGCAC_negctrl_site649] | 8.02 ± 0.4
11 | TATATATAAGCGTGTACACATTCTGAGTGTTGTATA [CACACA_site4502] | 8.75 ± 0.31
12 | ATTGTCTTCTCATATACACACTTTTATGACTATCTT [CACACA_site5696] | 8.94 ± 0.44
13 | TGTGTAATTATATATAAGGAGAAAGAATTCATTTTT [CACACA_negctrl_site670] | 8.44 ± 0.56
14 | TATTGAAGTTATAAAGTGCAGATAAATATGAGTTAT [GTGCAC_site9945] | 8.99 ± 0.18
15 | ACAAAAAATAATCAAAATGTATATATATAATATAAT [XGTACX_negctrl_site593] | 8.39 ± 0.31
16 | AAATGCCATATAATTTTTCTTAAACATAATTGTATA [CACACA_negctrl_site1665] | 8.06 ± 0.54
17 | AAAATAGCTGTATAGAGTACATATAAATAATGTTGT [XGTACX_site5692] | 8.47 ± 0.36
18 | TAAAATAAAAGTGAAACACACAGTATTTTACAACAT [CACACA_site3811] | 8.47 ± 0.46
19 | TGCAAAAAATTCCACACACACACACGCATATAAATA [CACACA_site6696] | 8.84 ± 0.25
20 | ATATAATGACAAGTATAAGTATCACAAAGAAATAAA [CACACA_negctrl_site1403] | 8.86 ± 0.4
21 | CCACTTTTTGAAGACACACACAAAAAAAAAAAAAAA [CACACA_site2551] | 8.15 ± 0.47
22 | TTTTGAAGAAAATTCTTTTTTTTTTTTTTTTGTAAA [CACACA_negctrl_site102] | 7.61 ± 0.51

Row | Sequence | gcPBM binding intensity (ln)
23 | CAAGCTTTTTCCTTTACACACATTAATTATATATAT [CACACA_site1423] | 8.89 ± 0.52
24 | ATAACAATTATTTGTCGACACACGTATATGTTATTT [CACACA_site1766] | 9.04 ± 0.71
25 | CATTTTTCTATATGTGCATGTAAGATAAGAATAATT [TGCATGCA_site107] | 8.84 ± 0.18
26 | TTTCGTCATTTTGTTTTTAATTCTACAATTTAGTTA [XGTACX_negctrl_site286] | 9.04 ± 0.26
27 | TCATATAATATTTATATGCACACTTTTCTATATATA [CACACA_site4075] | 8.53 ± 0.38
28 | ACTTACACATTTATTACACACATAAAGGAAAATTTT [CACACA_site1356] | 8.74 ± 0.36
29 | TTAAAAAATAACAAGGTGCAAATAGGTTTATAAAAT | 9.21 ± 0.32
30 | ATATTTAAATGGATCACACATATATATATATATATA [CACACA_site5255] | 10.3 ± 0.3
31 | CGCGAAGTAGCATTCACACACAGCAAAATATATATA [CACACA_site3495] | 8.68 ± 0.49
32 | CACTAATAGTGGATTACACACATATATATGTATATA [CACACA_site2531] | 8.54 ± 0.3
33 | TACTAAAACCCATACACACACATATATATAGTACCA [CACACA_site3184] | 8.61 ± 0.65
34 | TTTTTAACATTTAAATGTACATGTTACAATTTAAAG [XGTACX_site8789] | 8.44 ± 0.29
35 | AGAGACTTAGAAAACACACATACATAAGATAATTTA [CACACA_site2377] | 8.53 ± 0.43
36 | TTTTTATTTTTATACATATAATATATTATGATTAAA [CACACA_negctrl_site214] | 8.5 ± 0.37
37 | ACAGCATAATCATGCTGTACATTATTTTCTTAAGTA [XGTACX_site8456] | 8.11 ± 0.39
38 | AGAGGCCAGCTTTCTCTTCTAAACATGTACAAAAAT [GTGCAC_negctrl_site98] | 8.63 ± 0.49
39 | TGAGCACAAATACAGGTGCATATAAAATATATGACG | 8.88 ± 0.29
40 | AAAAAAATAAAATGTTCACACATTTCACAATTACTT [CACACA_site4859] | 8.09 ± 0.33
41 | ATATATATATAGTGCACACATATAAAATATATATAA [CACACA_site2745] | 9.9 ± 0.071
42 | TATAATATATATAGGAGTACGTATGTATATTTATAA [XGTACX_site3521] | 8.71 ± 0.35
43 | TTTACAGATACTTGCTCACACATATGTATAAAAATA [CACACA_site4928] | 8.6 ± 0.39
44 | ACATGAAACTATAAACGTACATACATACATATATAT [XGTACX_site5011] | 8.66 ± 0.25

Row | Sequence | gcPBM binding intensity (ln)
45 | ATATTTTATAATTTTACACACCATATAAAATAATTC [CACACA_site2797] | 8.52 ± 0.33
46 | TATATATAAAACATATGTACATATATATATATATAT [XGTACX_site419] | 10.2 ± 0.24
47 | AATAGTTAAATGTACACACTAACTACATGGAATATA [CACACA_site3262] | 8.61 ± 0.35
48 | AAGTAAAAAAATAGCACACACACAAAAACACCCACA [CACACA_site1291] | 8.97 ± 0.47
49 | AAAAAAAAAGGTACTACACACTATTATCAATAGAAA [CACACA_site91] | 8.54 ± 0.35
50 | TACTTATTATGAAACACACACCAAAACTACAGAATA [CACACA_site6265] | 8.9 ± 0.52
51 | CAAAATAAAAAATTCACACACATATAAATATAAATA [CACACA_site7065] | 8.54 ± 0.24
52 | ATTTAATTTATTATGTGTACTTATTTAATTAAATTA [XGTACX_site3171] | 8.48 ± 0.21
53 | CATATAATTATTGAAAGTACATACAAATAAAAAGAT [XGTACX_site6535] | 9.12 ± 0.39
54 | ATATTTTTATTTAAATCACATCATTTTGTTTATTTG [CACACA_negctrl_site1056] | 8.64 ± 0.43
55 | CTGATATATAGATGTAGTACATAAAAATGACGAATT [XGTACX_site5612] | 8.81 ± 0.38
56 | TTATATATTTATAAATGTACATATAATTTTTTTATA [XGTACX_site4696] | 8.3 ± 0.32
57 | TAAATATATTTATATTGTACATTTATGTTGATACCA [XGTACX_site228] | 8.31 ± 0.41
58 | ATATATATATGTATATGTACATATATATACACATAT [XGTACX_site140] | 9.37 ± 0.12
59 | ATATTTACCACTGTATGTACATATATAAAATATATC [XGTACX_site6373] | 8.81 ± 0.18
60 | TATATATATAATATATGTACTGATATGCTATTTACT [XGTACX_site841] | 8.915 ± 0.021
61 | TTTTGTGAATTTTAGATTTTTTAATACAAGAATATT [CACACA_negctrl_site606] | 8.14 ± 0.4
62 | TAACACATATATTGTTGTACATTCAAACTGAAAAAT [XGTACX_site5565] | 8.58 ± 0.41
63 | TTTTTTTTATTAAAAAGTACTAAACAAATTATATAT [XGTACX_site121] | 8.45 ± 0.33
64 | CCCATGTAATGAACATGTACATAATAATTTATAAAT [XGTACX_site8687] | 9.23 ± 0.87
65 | AGATGGAGAAAGTTATGTACACATATATAAATATGT [XGTACX_site6150] | 8.47 ± 0.3
66 | ATATATATATATATGTGTACATATGTATATATATCT [XGTACX_site2930] | 10.1 ± 0.4

Row | Sequence | gcPBM binding intensity (ln)
67 | TATATACATATGTGATGTACATTTTTTGTAATATAA [XGTACX_site6985] | 8.52 ± 0.33
68 | ATGTCTACAGTTTTTGCACACATATAAATAAAAAAA [CACACA_site3600] | 8.6 ± 0.45
69 | ATTTTTTTTTTTTTTTTTTTTGAGAAGAACTTTTTC [CACACA_negctrl_site1019] | 8.05 ± 0.46
70 | AAACATCATAAATATACACACATATTTATATTTATA [CACACA_site6437] | 8.35 ± 0.4
71 | CCATAACTCATATGCACACATAAATATTACATATAT [CACACA_site3821] | 8.69 ± 0.18
72 | TTTTAAAAAGAAAAAAATAACATACATATATATATA [CACACA_negctrl_site240] | 9.68 ± 0.28
73 | TTTAATATTTTTTTTTGTACTTATTTGTAGAAATAT [XGTACX_site3046] | 8.6 ± 0.45
74 | CTATTTTTTGTATAAACATGCATATAGTAGATATGG [TGCATGCA_site670] | 8.61 ± 0.26
75 | AGGCTCATTTTTTTTAGTACATCAAAAAAAAAAAAA [TGCATGCA_negctrl_site591] | 8.36 ± 0.18
76 | AAATTCATATGAATTTGTACGGACATAAATATCTTC [XGTACX_site1838] | 8.62 ± 0.33
77 | TGTATGTTTATTTGATGTACGGTCATACATATAAAT [XGTACX_site5176] | 8.68 ± 0.38
78 | ATTCATAATATTATAACACACGCTTATTACATAAAG [CACACA_site980] | 8.64 ± 0.49
79 | TTTTACATATACATGTGTACATAACAAAGAATGTTT [XGTACX_site2406] | 8.47 ± 0.34
80 | CGCATGTATTTTGTGTGTACTAATTATAATCAACTT [XGTACX_site4709] | 8.97 ± 0.51
81 | TTTTTTAATAAATGGTGTACATATTTTTTTTATACT [XGTACX_site8584] | 8.44 ± 0.28
82 | AGTGTATTAATTCTCACACACTAAGAAAAAAAAAAA [CACACA_site6007] | 8.3 ± 0.4
83 | TAATATTGTATTTATGTACACACATTTTTGGAATAT [CACACA_site8371] | 8.55 ± 0.33
84 | CAATCAAATAGACACACACACACCTAAACATAAAAG [CACACA_site7322] | 8.65 ± 0.58
85 | ATATTAAAATGAAAATATAAAAAAAAAAAAAAAAAA [CACACA_negctrl_site1559] | 8.04 ± 0.39
86 | TATATATATAAACACACACACACCAAAGCGTAGCGC [CACACA_site7903] | 9.23 ± 0.057
87 | TATTAATAAAAGCATTGTACAGTAATAAATAAATAA [XGTACX_site2924] | 8.81 ± 0.37
88 | AGCCATTAATTCTCTACACACCTTTATGTTATTTAG [CACACA_site3635] | 8.83 ± 0.44
